Test results taken from the supplement of paper PMC3334620.
In all, about 33,000 sequences were measured (“E-score (-0.5 to 0.5)”: median about -0.036, highest 2% from about 0.37 on). The list shows a part of the results.

target: T1, Yer064c (UniProt P40041); experiment: PBM E-score (8-mer binding enrichment) (E-score (-0.5 to 0.5)); higher = stronger / more preferred TF binding; most listed sequences are background and not binding sites; settings: protein concentration: 200 nM; construct: GST-full length
T1 sequence: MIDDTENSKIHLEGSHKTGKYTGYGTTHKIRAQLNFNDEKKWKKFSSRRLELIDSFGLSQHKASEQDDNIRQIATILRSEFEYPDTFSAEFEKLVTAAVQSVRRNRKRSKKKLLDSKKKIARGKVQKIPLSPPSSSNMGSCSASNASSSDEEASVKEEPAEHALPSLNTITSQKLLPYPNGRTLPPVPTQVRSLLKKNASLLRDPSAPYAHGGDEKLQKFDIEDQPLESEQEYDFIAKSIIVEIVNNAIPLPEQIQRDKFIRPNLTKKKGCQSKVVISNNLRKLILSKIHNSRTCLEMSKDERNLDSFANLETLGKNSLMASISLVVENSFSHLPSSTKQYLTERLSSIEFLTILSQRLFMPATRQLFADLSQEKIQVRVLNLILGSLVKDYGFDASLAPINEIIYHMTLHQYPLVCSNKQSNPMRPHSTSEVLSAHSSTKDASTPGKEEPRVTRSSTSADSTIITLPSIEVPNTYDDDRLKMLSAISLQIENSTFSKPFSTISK
Procedure, shortened: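 E-scores (a modified Wilcoxon-Mann-Whitney statistic) were assigned by the Universal PBM Analysis Suite to every ungapped eight-base word pooled with its reverse complement. The input came from universal all-10-mer Agilent arrays made double-stranded by primer extension and probed with GST-tagged yeast transcription factors at about 100-200 nM. Fluorescent anti-GST detected bound protein, and masliner normalised the scans.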

| Sequence | PBM E-score |
| --- | --- |
| CATGACAG | 0.0747 |
| ATACATAG | 0.187 |
| CTACGCGA | 0.0298 |
| ATAAAACC | 0.0678 |
| AACTTCAA | 0.0587 |
| GTGAAATA | -0.0351 |
| ATAAGAGA | 0.135 |
| CAGCTTAA | -0.00624 |
| GAACCTGA | -0.102 |
| ACACGACT | 0.408 |
| ACCTTCGA | 0.00431 |
| GGACAACA | 0.0223 |
| CATCGCAA | -0.00588 |
| AGATACAT | 0.132 |
| TCACGGGA | 0.17 |
| TGCGCCCA | -0.265 |
| TGACAAAA | -0.0309 |
| GGAAAGTA | -0.0868 |
| AACTGTGA | 0.129 |
| CCCGTCAG | -0.259 |
| ACCCCTCA | -0.217 |
| CTACCCCA | -0.17 |
| ACCGCTCT | -0.114 |
| AGCAGCGG | -0.145 |
| CTGATCTA | 0.0991 |

| Sequence | PBM E-score |
| --- | --- |
| GTGCTGTA | -0.00179 |
| CGCTTGTC | -0.24 |
| GAGACCGC | -0.296 |
| CATGAATC | 0.423 |
| CCAGCATC | -0.209 |
| AATCGTAA | 0.115 |
| TACCCGGA | -0.095 |
| CCGAGTCA | 0.467 |
| GATAAAAC | 0.1 |
| AGTCAGCC | 0.458 |
| CCAATGGC | -0.156 |
| CACCAAAA | 0.0598 |
| AGGAGTGG | -0.274 |
| CACTAGGC | -0.0241 |
| ATCGGTAG | -0.0111 |
| ACCAGGGC | -0.183 |
| CAATCATA | 0.371 |
| TAAGGGCA | -0.0703 |
| TCTGGTCA | 0.0409 |
| ACTACGGA | 0.0965 |
| AACACTGC | -0.111 |
| ATTCAAGC | 0.243 |
| ATAAAGAA | 0.0719 |
| ACTATTAG | 0.205 |
| CATGTAAA | -0.0585 |

| Sequence | PBM E-score |
| --- | --- |
| AAAAGGTA | 0.00329 |
| ACTCCGAA | 0.117 |
| AATACCAT | 0.165 |
| GGAAGACA | 0.039 |
| TAGTCATA | 0.489 |
| CAAATGAA | 0.111 |
| TCCCCCCA | -0.265 |
| CCCGCAGA | -0.167 |
| GCGGTTTA | -0.0334 |
| ATGCGATA | -0.0494 |
| ATGCGAGG | -0.0534 |
| AATCCTAG | 0.0565 |
| GCCTTGAA | -0.123 |
| TCTACACA | 0.0654 |
| AAAACCCC | -0.275 |
| ATAGTTTG | -0.0035 |
| AAGTTCCA | -0.2 |
| CAAGGGCC | -0.122 |
| AGCCACGC | 0.031 |
| AAATTGCC | -0.0755 |
| TAAAGTTA | 0.106 |
| GAGGCTCC | -0.268 |
| CCGCGACC | -0.121 |
| CCCGGTCG | -0.316 |
| ATGGCTCC | 0.256 |

| Sequence | PBM E-score |
| --- | --- |
| AAACGTTC | -0.234 |
| CAGCAACG | 0.0955 |
| GGACGACC | -0.23 |
| AGCTAGAA | -0.0011 |
| AGCTGAGA | 0.166 |
| AGTGCACG | -0.084 |
| CGATTGCC | -0.137 |
| CGCCGCAA | -0.235 |
| CGCTCCTA | -0.0744 |
| ACTTGACT | 0.412 |
| AGGTTTTA | -0.113 |
| CAATATGC | -0.0206 |
| ATCGCGTC | -0.108 |
| AGCAAAAG | -0.271 |
| CCTAGAAA | -0.0302 |
| CTCGATAC | 0.0266 |
| AAGTGTAT | -0.024 |
| CCTATCAA | -0.14 |
| CAGCGGCG | 0.18 |
| CGCAGGAA | -0.0939 |
| TACTTAAA | 0.104 |
| TGTAAAAA | -0.12 |
| AACGCTGA | 0.12 |
| CAGGATGA | 0.15 |
| ATGCGTTC | 0.0922 |

| Sequence | PBM E-score |
| --- | --- |
| AACTAGCT | -0.0448 |
| GAACGGCC | -0.296 |
| ATCGGAGA | -0.0563 |
| AGTGCTAG | -0.224 |
| ACGCTTGC | -0.208 |
| AAAGACGC | -0.166 |
| AAACAGGG | -0.082 |
| ACCCCGAA | -0.0895 |
| AAGTCCTA | 0.186 |
| ACTACCCC | 0.0724 |
| GTGAACAA | -0.178 |
| AATCTGTC | 0.0226 |
| ACGATACA | -0.0548 |
| TATCTCCA | -0.00425 |
| CTATACAC | -0.135 |
| CCTGCCAA | -0.152 |
| AGAGGACG | -0.139 |
| CTACTTGC | 0.155 |
| GGGTGGGA | -0.139 |
| CTGGATCC | -0.105 |
| AGAAGGCG | -0.32 |
| GAACTCTC | -0.0307 |
| AATACGGT | -0.0939 |
| GATCCTTA | -0.124 |
| ACACGCAT | -0.121 |

| Sequence | PBM E-score |
| --- | --- |
| CACCAAAC | -0.024 |
| ATGCGCTG | -0.0746 |
| ATTACTTG | 0.19 |
| CCCCCCAA | -0.315 |
| GAGGAACA | 0.0367 |
| CCCGTGGA | 0.0223 |
| GCGCCTAC | -0.0635 |
| CTGTGACC | -0.0881 |
| CCGCCGTA | -0.145 |
| AACCAGGA | 0.0408 |
| GTGACCAC | -0.0465 |
| CCTAGACC | -0.16 |
| CTACCATA | 0.0732 |
| TAGCAAAA | -0.192 |
| CGTGTAAA | -0.0317 |
| AAAAGCTC | -0.0149 |
| CGCCACGC | -0.0595 |
| CCTTGGTC | -0.0352 |
| CTATAGAG | -0.174 |
| AACTCTAT | -0.243 |
| AAATTCGT | -0.06 |
| CTAGTCTA | 0.205 |
| TCCCTGAA | 0.0531 |
| AATCTTTA | 0.18 |
| ACTACTAA | 0.25 |

| Sequence | PBM E-score |
| --- | --- |
| CCCGGTAA | -0.25 |
| ACCAGTTG | 0.0622 |
| CAGACAAC | -0.122 |
| ATGTAACC | -0.0155 |
| CCTACTGA | 0.0921 |
| CTCTTTCC | 0.0304 |
| ACACGGAG | -0.119 |
| ACTCGGTG | 0.171 |
| AAACTTGG | -0.254 |
| ATAGCCTC | -0.0538 |
| TGTCAACA | -0.18 |
| GGGTTTCA | -0.23 |
| GCCGGATA | -0.176 |
| CGCGCTAC | 0.0734 |
| GGTCCCGA | -0.339 |
| AGCGCCTA | -0.0797 |
| CAGCTTTA | -0.123 |
| CGGGTGTC | -0.028 |
| ACTAGCCA | 0.262 |
| AAGACTCC | 0.387 |
| AACGTCCC | -0.218 |
| TAAGCCCA | -0.133 |
